{"source": "the supplement of paper PMC8728848", "binders": {"B1": {"name": "MGL6A (Homo sapiens) (protein)", "chain": "MTRTYENFQYLENKVKVQGFKNGPLPLQSLLQRLCSGPCHLLLSLGLGLLLLVIICVVGFQNSKFQRDLVTLRTDFSNFTSNTVAEIQALTSQGSSLEETIASLKAEVEGFKQERQAVHSEMLLRVQQLVQDLKKLTCQVATLNNNGEEASTEGTCCPVNWVEHQDSCYWFSHSGMSWAEAEKYCQLKNAHLVVINSREEQNFVQKYLGSAYTWMGLSDPEGAWKWVDGTDYATGFQNWKPGQPDDWQGHGLGGGEDCAHFHPDGRWNDDVCQRPYHWVCEAGLGQTSQESH"}}, "test_in_all_cases": "glycan array binding signal (z-score within array); higher = stronger binding", "details_in_all_cases": "glycan notation: IUPAC condensed, linker removed", "key": {"Gal(b1-3)GalNAc": {"molecular_target": "Gal(b1-3)GalNAc", "how_it_was_run": "(§1)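 Glycan array binding is given as a within-array Z-score, which can be read as non-binding when negative. The arrays, 3228 of them, came from the Consortium for Functional Glycomics database and were retained only where the protein sequence was available. Z-scores were averaged across arrays of the same protein sequence at different concentrations or buffers and across linkers.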"}, "[1]": {"molecular_target": "Gal(b1-3)GalNAc(a1-3)[Fuc(a1-2)]Gal(b1-4)Glc", "how_it_was_run": "as §1"}, "[2]": {"molecular_target": "Gal(b1-3)GalNAc(a1-3)[Fuc(a1-2)]Gal(b1-4)GlcNAc", "how_it_was_run": "as §1"}, "Gal(b1-3)GalNAc(b1-3)Gal": {"molecular_target": "Gal(b1-3)GalNAc(b1-3)Gal", "how_it_was_run": "as §1"}, "[3]": {"molecular_target": "Gal(b1-3)GalNAc(b1-3)Gal(a1-4)Gal(b1-4)Glc", "how_it_was_run": "as §1"}, "[4]": {"molecular_target": "Gal(b1-3)GalNAc(b1-4)Gal(b1-4)Glc", "how_it_was_run": "as §1"}, "[5]": {"molecular_target": "Gal(b1-3)GalNAc(b1-4)[Neu5Ac(a2-3)]Gal(b1-4)Glc", "how_it_was_run": "as §1"}, "Gal(b1-3)GlcNAc": {"molecular_target": "Gal(b1-3)GlcNAc", "how_it_was_run": "as §1"}, "[6]": {"molecular_target": "Gal(b1-3)GlcNAc(a1-3)Gal(b1-4)GlcNAc", "how_it_was_run": "as §1"}, "[7]": {"molecular_target": "Gal(b1-3)GlcNAc(a1-6)Gal(b1-4)GlcNAc", "how_it_was_run": "as §1"}, "Gal(b1-3)GlcNAc(b1-2)Man": {"molecular_target": "Gal(b1-3)GlcNAc(b1-2)Man", "how_it_was_run": "as §1"}, "[8]": {"molecular_target": "Gal(b1-3)GlcNAc(b1-2)Man(a1-3)[Gal(b1-3)GlcNAc(b1-2)Man(a1-6)]Man(b1-4)GlcNAc(b1-4)GlcNAc", "how_it_was_run": "as §1"}, "[9]": {"molecular_target": "Gal(b1-3)GlcNAc(b1-2)Man(a1-3)[Gal(b1-3)GlcNAc(b1-2)Man(a1-6)]Man(b1-4)GlcNAc(b1-4)[Fuc(a1-6)]GlcNAc", "how_it_was_run": "as §1"}, "[10]": {"molecular_target": "Gal(b1-3)GlcNAc(b1-2)Man(a1-3)[GlcNAc(b1-4)][Gal(b1-3)GlcNAc(b1-2)Man(a1-6)]Man(b1-4)GlcNAc(b1-4)GlcNAc", "how_it_was_run": "as §1"}, "[11]": {"molecular_target": "Gal(b1-3)GlcNAc(b1-2)[Gal(b1-3)GlcNAc(b1-6)]Man(a1-6)[Gal(b1-3)GlcNAc(b1-2)Man(a1-3)]Man(b1-4)GlcNAc(b1-4)GlcNAc", "how_it_was_run": "as §1"}, "[12]": {"molecular_target": "Gal(b1-3)GlcNAc(b1-3)Gal(b1-3)GlcNAc", "how_it_was_run": "as §1"}, "[13]": {"molecular_target": "Gal(b1-3)GlcNAc(b1-3)Gal(b1-4)Glc", "how_it_was_run": "as §1"}, "[14]": {"molecular_target": "Gal(b1-3)GlcNAc(b1-3)Gal(b1-4)GlcNAc", "how_it_was_run": "as §1"}, "[15]": {"molecular_target": "Gal(b1-3)GlcNAc(b1-3)Gal(b1-4)GlcNAc(b1-2)Man(a1-3)[Gal(b1-3)GlcNAc(b1-3)Gal(b1-4)GlcNAc(b1-2)Man(a1-6)]Man(b1-4)GlcNAc(b1-4)GlcNAc", "how_it_was_run": "as §1"}, "[16]": {"molecular_target": "Gal(b1-3)GlcNAc(b1-3)Gal(b1-4)GlcNAc(b1-2)[Gal(b1-3)GlcNAc(b1-3)Gal(b1-4)GlcNAc(b1-6)]Man(a1-6)[Gal(b1-3)GlcNAc(b1-3)Gal(b1-4)GlcNAc(b1-2)Man(a1-3)]Man(b1-4)GlcNAc(b1-4)[Fuc(a1-6)]GlcNAc", "how_it_was_run": "as §1"}, "[17]": {"molecular_target": "Gal(b1-3)GlcNAc(b1-3)Gal(b1-4)GlcNAc(b1-3)Gal(b1-4)GlcNAc(b1-2)[Gal(b1-3)GlcNAc(b1-3)Gal(b1-4)GlcNAc(b1-3)Gal(b1-4)GlcNAc(b1-6)]Man(a1-6)[Gal(b1-3)GlcNAc(b1-3)Gal(b1-4)GlcNAc(b1-3)Gal(b1-4)GlcNAc(b1-2)Man(a1-3)]Man(b1-4)GlcNAc(b1-4)[Fuc(a1-6)]GlcNAc", "how_it_was_run": "as §1"}, "[18]": {"molecular_target": "Gal(b1-3)GlcNAc(b1-3)Gal(b1-4)GlcNAc(b1-6)[Gal(b1-3)GlcNAc(b1-3)]Gal(b1-4)Glc", "how_it_was_run": "as §1"}, "[19]": {"molecular_target": "Gal(b1-3)GlcNAc(b1-3)Gal(b1-4)[Fuc(a1-3)]GlcNAc", "how_it_was_run": "as §1"}, "[20]": {"molecular_target": "Gal(b1-3)GlcNAc(b1-3)Gal(b1-4)[Fuc(a1-3)]GlcNAc(b1-6)[Gal(b1-3)GlcNAc(b1-3)]Gal(b1-4)Glc", "how_it_was_run": "as §1"}, "[21]": {"molecular_target": "Gal(b1-3)GlcNAc(b1-3)GalNAc", "how_it_was_run": "as §1"}, "[22]": {"molecular_target": "Gal(b1-3)GlcNAc(b1-6)Gal(b1-4)GlcNAc", "how_it_was_run": "as §1"}, "[23]": {"molecular_target": "Gal(b1-3)GlcNAc(b1-6)GalNAc", "how_it_was_run": "as §1"}, "[24]": {"molecular_target": "Gal(b1-3)GlcNAc(b1-6)[Gal(b1-3)]GalNAc", "how_it_was_run": "as §1"}, "Gal(b1-3)GlcNAc6S": {"molecular_target": "Gal(b1-3)GlcNAc6S", "how_it_was_run": "as §1"}, "[25]": {"molecular_target": "Gal(b1-3)[Fuc(a1-4)]GlcNAc", "how_it_was_run": "as §1"}, "[26]": {"molecular_target": "Gal(b1-3)[Fuc(a1-4)]GlcNAc(b1-2)Man", "how_it_was_run": "as §1"}, "[27]": {"molecular_target": "Gal(b1-3)[Fuc(a1-4)]GlcNAc(b1-2)Man(a1-3)[Gal(b1-3)[Fuc(a1-4)]GlcNAc(b1-2)Man(a1-6)]Man(b1-4)GlcNAc(b1-4)GlcNAc", "how_it_was_run": "as §1"}, "[28]": {"molecular_target": "Gal(b1-3)[Fuc(a1-4)]GlcNAc(b1-2)Man(a1-3)[Gal(b1-3)[Fuc(a1-4)]GlcNAc(b1-2)Man(a1-6)]Man(b1-4)GlcNAc(b1-4)[Fuc(a1-6)]GlcNAc", "how_it_was_run": "as §1"}, "[29]": {"molecular_target": "Gal(b1-3)[Fuc(a1-4)]GlcNAc(b1-3)Gal(b1-3)[Fuc(a1-4)]GlcNAc", "how_it_was_run": "as §1"}, "[30]": {"molecular_target": "Gal(b1-3)[Fuc(a1-4)]GlcNAc(b1-3)Gal(b1-4)GlcNAc", "how_it_was_run": "as §1"}, "[31]": {"molecular_target": "Gal(b1-3)[Fuc(a1-4)]GlcNAc(b1-3)Gal(b1-4)[Fuc(a1-3)]GlcNAc", "how_it_was_run": "as §1"}, "[32]": {"molecular_target": "Gal(b1-3)[Fuc(a1-4)]GlcNAc(b1-6)GalNAc", "how_it_was_run": "as §1"}}, "note": "The list shows a part of the results."}
{"binder": "B1", "values": [{"measurement": "glycan array binding signal (z-score)", "setting": "Gal(b1-3)GalNAc", "value": -0.271}, {"measurement": "glycan array binding signal (z-score)", "setting": "[1]", "value": -0.329}, {"measurement": "glycan array binding signal (z-score)", "setting": "[2]", "value": -0.178}, {"measurement": "glycan array binding signal (z-score)", "setting": "Gal(b1-3)GalNAc(b1-3)Gal", "value": -0.243}, {"measurement": "glycan array binding signal (z-score)", "setting": "[3]", "value": 0.788}, {"measurement": "glycan array binding signal (z-score)", "setting": "[4]", "value": -0.013}, {"measurement": "glycan array binding signal (z-score)", "setting": "[5]", "value": 0.46}, {"measurement": "glycan array binding signal (z-score)", "setting": "Gal(b1-3)GlcNAc", "value": -0.245}, {"measurement": "glycan array binding signal (z-score)", "setting": "[6]", "value": -0.256}, {"measurement": "glycan array binding signal (z-score)", "setting": "[7]", "value": -0.268}, {"measurement": "glycan array binding signal (z-score)", "setting": "Gal(b1-3)GlcNAc(b1-2)Man", "value": -0.249}, {"measurement": "glycan array binding signal (z-score)", "setting": "[8]", "value": -0.266}, {"measurement": "glycan array binding signal (z-score)", "setting": "[9]", "value": -0.256}, {"measurement": "glycan array binding signal (z-score)", "setting": "[10]", "value": -0.263}, {"measurement": "glycan array binding signal (z-score)", "setting": "[11]", "value": -0.294}, {"measurement": "glycan array binding signal (z-score)", "setting": "[12]", "value": -0.283}, {"measurement": "glycan array binding signal (z-score)", "setting": "[13]", "value": -0.274}, {"measurement": "glycan array binding signal (z-score)", "setting": "[14]", "value": -0.284}, {"measurement": "glycan array binding signal (z-score)", "setting": "[15]", "value": -0.261}, {"measurement": "glycan array binding signal (z-score)", "setting": "[16]", "value": -0.009}, {"measurement": "glycan array binding signal (z-score)", "setting": "[17]", "value": -0.086}, {"measurement": "glycan array binding signal (z-score)", "setting": "[18]", "value": -0.24}, {"measurement": "glycan array binding signal (z-score)", "setting": "[19]", "value": -0.256}, {"measurement": "glycan array binding signal (z-score)", "setting": "[20]", "value": -0.268}, {"measurement": "glycan array binding signal (z-score)", "setting": "[21]", "value": -0.253}, {"measurement": "glycan array binding signal (z-score)", "setting": "[22]", "value": -0.255}, {"measurement": "glycan array binding signal (z-score)", "setting": "[23]", "value": 3.91}, {"measurement": "glycan array binding signal (z-score)", "setting": "[24]", "value": -0.212}, {"measurement": "glycan array binding signal (z-score)", "setting": "Gal(b1-3)GlcNAc6S", "value": -0.252}, {"measurement": "glycan array binding signal (z-score)", "setting": "[25]", "value": -0.263}, {"measurement": "glycan array binding signal (z-score)", "setting": "[26]", "value": -0.207}, {"measurement": "glycan array binding signal (z-score)", "setting": "[27]", "value": 0.09}, {"measurement": "glycan array binding signal (z-score)", "setting": "[28]", "value": -0.173}, {"measurement": "glycan array binding signal (z-score)", "setting": "[29]", "value": -0.338}, {"measurement": "glycan array binding signal (z-score)", "setting": "[30]", "value": 1.02}, {"measurement": "glycan array binding signal (z-score)", "setting": "[31]", "value": -0.134}, {"measurement": "glycan array binding signal (z-score)", "setting": "[32]", "value": 1.19}]}
